# Among all 48,000 compounds or so, about 120 (0.25%) were called active. Another 4% or so got no clear call; they are omitted. Calls follow the shape of the dose curve; as a rule, active = well fitted activation curve with a large enough effect; inconclusive = small, poorly fitted or top-dose-only effect, or another doubt; inactive = no such curve, though single readings can be large or run the other way. Some of the results follow.
# Test: Primary qHTS for Identification of Small Molecule Activators of Huntingtin-Antisense Promoter Activity; also: nearly all actives have a fitted effect of over 55% in size
# Conditions: HEK293 HTT-AS promoter firefly luciferase reporter (activity 0% = vehicle and -100% = no light), 24 h; series mostly up to 57.5 µM; activity change, positive = activation: at the top concentration
# Outline: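 HEK293 Fluc reporter, 2,500 cells/well, 24 h pre-culture; cpds up to 57.5 uM final, 24 h 37 degrees C; Dual-Glo, 10 min RT; normalized vehicle = 0%, zero RLU = -100%.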
row,Compound,"activity change, positive = activation"
1,CCc1ccc(CNC(=O)c2c(C)oc3ncn(CC(C)C)c(=O)c23)cc1,inactive: -27.6%
2,COc1ccc(C(=O)N2c3ccc(C)cc3C(C)(c3ccccc3)CC2(C)C)cc1 (stereo unspecified),inactive: -38%
3,COc1ccc(CNC(=O)CCCn2c(=O)c3cccn3c3cccnc32)cc1,inactive: 0.394%
4,CCN(CC)CCCNC(=O)CN1N=C(c2ccc(OC)cc2)CCC1=O,inactive: -0.942%
5,O=S(=O)(c1cccc(F)c1)N1CCC(Oc2ccc(-n3cnnn3)cc2)CC1,inactive: -33.9%
6,CCOCCCNC(=O)c1c(NC(=O)Cc2coc3ccc(C)cc23)sc2c1CCC2,inactive: -10.8%
7,CCc1ccc(S(=O)(=O)c2c(C(=O)c3ccccc3)cnc3ccc(CC)cc23)cc1,inactive: -41.7%
8,COc1ccccc1CN1CCC(CNC(=O)c2cnn(-c3ccc(Cl)cc3)c2C2CCN(C(=O)OC(C)(C)C)CC2)CC1,inactive: -13.5%
9,CC(C)c1ccc(OCC(O)CN2CCN(c3ccc(F)cc3)CC2)cc1 (stereo unspecified),inactive: -38.1%
10,CCCCNS(=O)(=O)c1ccc2nc(-c3cccnc3)cc(C(=O)NCCOC)c2c1,inactive: -9.56%
11,Cc1ccccc1NC(=O)c1ccc(Cl)c(S(=O)(=O)N2CCCCCC2)c1,inactive: -32.1%
12,Cc1nn(CC(=O)N2CCN(c3cccc(C(F)(F)F)c3)CC2)c(=O)c2cccn12,inactive: 1.99%
13,Cc1nn(C)c2c1c(C(F)(F)F)cc(=O)n2C(C)C(=O)NCc1ccccc1Cl (stereo unspecified),inactive: -18.9%
14,COC(=O)c1sccc1S(=O)(=O)N(CC(=O)NCc1ccc(F)cc1)c1ccc(Cl)cc1,inactive: -32.7%
15,COc1ccc(CNC(=O)c2ccc(CNS(=O)(=O)c3ccc(F)cc3)cc2)cc1,inactive: -11.2%
16,Cc1ccc(NC(=O)Cn2nnc(C(=O)NCc3cccs3)c2N)cc1Cl,inactive: -1.91%
17,Cc1oc(-c2cccc(Cl)c2)nc1Cn1c(SCc2ccccc2F)nc2ccncc21,inactive: 13.2%
18,Cc1cc(C)cc(NC(=O)Cn2c(C(F)(F)F)nc3ccccc32)c1,inactive: -17.6%
19,Cc1ccccc1NC(=O)CSc1nnc(-c2cccs2)o1,inactive: 7.83%
20,COc1ccc(CCNC(=O)c2ccc3c(c2)N(Cc2ccccc2C)C(=O)c2ccccc2S3)cc1OC,inactive: -26.2%
21,COc1ccccc1NC(=O)CSC1=Nc2ccccc2C2=NC(CC(=O)NCc3cccs3)C(=O)N12 (stereo unspecified),inactive: -6.84%
22,Nc1c(CC(=O)O)cccc1C(=O)c1ccc(Br)cc1,inactive: -0.948%
23,Cc1ccc(NC(=O)C2CCCN2S(=O)(=O)c2ccc3c(c2)CCCC(=O)N3)cc1Cl (stereo unspecified),inactive: -37%
24,Cc1cccc(NC(=O)CSc2nc3ccc(NC(=O)COc4ccccc4F)cc3s2)c1,inactive: -20.3%
25,OCCN1CCN(CCCN2c3ccccc3C=Cc3ccccc32)CC1,inactive: -3.23%
26,C=CCNc1nc(NCC=C)nc(N2CCN(C(c3ccc(F)cc3)c3ccc(F)cc3)CC2)n1,inactive: -25.2%
